Assay results as given in publication PMC9911399, “Two distinct binding modes provide the RNA-binding protein RbFox with extraordinary sequence specificity”.
Changes are numbered by the printed parent chain; changes in the protein carry UniProt numbers. The list shows a part of the results.

T1: RBFOX1 RRM (Homo sapiens, UniProt Q9NWB1 109-208)
T1 sequence: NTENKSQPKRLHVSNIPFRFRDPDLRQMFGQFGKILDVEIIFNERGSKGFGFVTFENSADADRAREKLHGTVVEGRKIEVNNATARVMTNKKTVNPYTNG

B1: GCCGUAA (DNA:RNA)
RNA: GGGAGACCGGAAUUCAGAUUGUCCGCCGUAAUUAAAUCCCGUCGUAGCCACCA
DNA 1: CAATCTGAATTCCGGTCTCCC
DNA 2: TGGTGGCTACGACGGGATT
B2: UCCCUUA (DNA:RNA)
RNA: B1 RNA with G25U, G28C, A30U
DNA 1: CAATCTGAATTCCGGTCTCCC
DNA 2: TGGTGGCTACGACGGGATT
B3: CGCCUGC (DNA:RNA)
RNA: B1 RNA with G25C, C26G, G28C, A30G, A31C
DNA 1: CAATCTGAATTCCGGTCTCCC
DNA 2: TGGTGGCTACGACGGGATT
B4: GAAACGU (DNA:RNA)
RNA: B1 RNA with C26A, C27A, G28A, U29C, A30G, A31U
DNA 1: CAATCTGAATTCCGGTCTCCC
DNA 2: TGGTGGCTACGACGGGATT
B5: CAGUGGU (DNA:RNA)
RNA: GGGAGACCGGAAUUCAGAUUGUCCCAGUGGUUUAAAUCCCGUCGUAGCCACCA
DNA 1: CAATCTGAATTCCGGTCTCCC
DNA 2: TGGTGGCTACGACGGGATT
B6: AGCUAUG (DNA:RNA)
RNA: B5 RNA with C25A, A26G, G27C, G29A, G30U, U31G
DNA 1: CAATCTGAATTCCGGTCTCCC
DNA 2: TGGTGGCTACGACGGGATT
B7: GAACGGC (DNA:RNA)
RNA: B5 RNA with C25G, G27A, U28C, U31C
DNA 1: CAATCTGAATTCCGGTCTCCC
DNA 2: TGGTGGCTACGACGGGATT
B8: CGCGACG (DNA:RNA)
RNA: B1 RNA with G25C, C26G, U29A, A30C, A31G
DNA 1: CAATCTGAATTCCGGTCTCCC
DNA 2: TGGTGGCTACGACGGGATT
B9: GGGUGUC (DNA:RNA)
RNA: B5 RNA with C25G, A26G, G30U, U31C
DNA 1: CAATCTGAATTCCGGTCTCCC
DNA 2: TGGTGGCTACGACGGGATT
B10: CCAGAUA (DNA:RNA)
RNA: B1 RNA with G25C, C27A, U29A, A30U
DNA 1: CAATCTGAATTCCGGTCTCCC
DNA 2: TGGTGGCTACGACGGGATT
B11: CACCAUA (DNA:RNA)
RNA: B5 RNA with G27C, U28C, G29A, G30U, U31A
DNA 1: CAATCTGAATTCCGGTCTCCC
DNA 2: TGGTGGCTACGACGGGATT
B12: GUAAAUC (DNA:RNA)
RNA: B1 RNA with C26U, C27A, G28A, U29A, A30U, A31C
DNA 1: CAATCTGAATTCCGGTCTCCC
DNA 2: TGGTGGCTACGACGGGATT
B13: AGUAGCU (DNA:RNA)
RNA: B5 RNA with C25A, A26G, G27U, U28A, G30C
DNA 1: CAATCTGAATTCCGGTCTCCC
DNA 2: TGGTGGCTACGACGGGATT
B14: AUGACGA (DNA:RNA)
RNA: B5 RNA with C25A, A26U, U28A, G29C, U31A
DNA 1: CAATCTGAATTCCGGTCTCCC
DNA 2: TGGTGGCTACGACGGGATT
B15: GCCUCCU (DNA:RNA)
RNA: B1 RNA with G28U, U29C, A30C, A31U
DNA 1: CAATCTGAATTCCGGTCTCCC
DNA 2: TGGTGGCTACGACGGGATT
B16: ACUAAGU (DNA:RNA)
RNA: B5 RNA with C25A, A26C, G27U, U28A, G29A
DNA 1: CAATCTGAATTCCGGTCTCCC
DNA 2: TGGTGGCTACGACGGGATT
B17: UACUCAA (DNA:RNA)
RNA: B1 RNA with G25U, C26A, G28U, U29C
DNA 1: CAATCTGAATTCCGGTCTCCC
DNA 2: TGGTGGCTACGACGGGATT
B18: UGGUCCU (DNA:RNA)
RNA: B5 RNA with C25U, A26G, G29C, G30C
DNA 1: CAATCTGAATTCCGGTCTCCC
DNA 2: TGGTGGCTACGACGGGATT
B19: UCGUGGA (DNA:RNA)
RNA: B5 RNA with C25U, A26C, U31A
DNA 1: CAATCTGAATTCCGGTCTCCC
DNA 2: TGGTGGCTACGACGGGATT
B20: CGUUACG (DNA:RNA)
RNA: B5 RNA with A26G, G27U, G29A, G30C, U31G
DNA 1: CAATCTGAATTCCGGTCTCCC
DNA 2: TGGTGGCTACGACGGGATT
B21: CCGCGAG (DNA:RNA)
RNA: B5 RNA with A26C, U28C, G30A, U31G
DNA 1: CAATCTGAATTCCGGTCTCCC
DNA 2: TGGTGGCTACGACGGGATT
B22: CGGUAAG (DNA:RNA)
RNA: B5 RNA with A26G, G29A, G30A, U31G
DNA 1: CAATCTGAATTCCGGTCTCCC
DNA 2: TGGTGGCTACGACGGGATT
B23: CAAGUUG (DNA:RNA)
RNA: B5 RNA with G27A, U28G, G29U, G30U, U31G
DNA 1: CAATCTGAATTCCGGTCTCCC
DNA 2: TGGTGGCTACGACGGGATT
B24: AGUGGGG (DNA:RNA)
RNA: B5 RNA with C25A, A26G, G27U, U28G, U31G
DNA 1: CAATCTGAATTCCGGTCTCCC
DNA 2: TGGTGGCTACGACGGGATT
B25: UGAGCUG (DNA:RNA)
RNA: B1 RNA with G25U, C26G, C27A, U29C, A30U, A31G
DNA 1: CAATCTGAATTCCGGTCTCCC
DNA 2: TGGTGGCTACGACGGGATT
B26: GUGGGGG (DNA:RNA)
RNA: B5 RNA with C25G, A26U, U28G, U31G
DNA 1: CAATCTGAATTCCGGTCTCCC
DNA 2: TGGTGGCTACGACGGGATT
B27: CCAACGU (DNA:RNA)
RNA: B5 RNA with A26C, G27A, U28A, G29C
DNA 1: CAATCTGAATTCCGGTCTCCC
DNA 2: TGGTGGCTACGACGGGATT
B28: UGUCAUG (DNA:RNA)
RNA: GGGAGACCGGAAUUCAGAUUGUCCUGUCAUGUUAAAUCCCGUCGUAGCCACCA
DNA 1: CAATCTGAATTCCGGTCTCCC
DNA 2: TGGTGGCTACGACGGGATT
B29: GCGCACG (DNA:RNA)
RNA: B28 RNA with U25G, G26C, U27G, U30C
DNA 1: CAATCTGAATTCCGGTCTCCC
DNA 2: TGGTGGCTACGACGGGATT
B30: AUAUGUU (DNA:RNA)
RNA: B5 RNA with C25A, A26U, G27A, G30U
DNA 1: CAATCTGAATTCCGGTCTCCC
DNA 2: TGGTGGCTACGACGGGATT
B31: GAGUGAU (DNA:RNA)
RNA: B5 RNA with C25G, G30A
DNA 1: CAATCTGAATTCCGGTCTCCC
DNA 2: TGGTGGCTACGACGGGATT

The binders below were run against T1, RBFOX1 RRM (assay: EMSA; HiTS-Eq, 1 nM pool, 10 min; buffer printed only for the single-RNA assays: 10 mM Tris pH 7.5, 150 mM NaCl, 3.4 mM EDTA, 0.001% NP-40, 30 C). Conditions: tags: His6 N-terminal (pET28a); label: 5' 32P.
In short: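 Purified RbFox RRM (wild type or mutant) was equilibrated for 10 min in 50 µL with 1 nM of a 5′-radiolabelled pool of RNA with 7 randomized nucleotides, its flanks annealed to DNA oligonucleotides, across increasing protein concentrations. Free RNA was separated by 8% native PAGE, excised, reverse-transcribed, PCR-barcoded and sequenced on an Illumina HiSeq 2500. Relative association constants came from read-count changes of each variant against the control reaction, normalised to the cognate motif.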

First: B1
Second: B2
The binding signal of the first is higher: 0.00669 KA relative to UGCAUGU for the first, 0.00553 KA relative to UGCAUGU for the second.

First: B3
Second: B4
The binding signal of the first is higher: 0.0343 KA relative to UGCAUGU for the first, 0.00867 KA relative to UGCAUGU for the second.

Compared with B5, B6 is higher in binding signal: 0.0116 KA relative to UGCAUGU for the first, 0.0134 KA relative to UGCAUGU for the second.

Compared with B7, B8 is lower in binding signal: 0.0144 KA relative to UGCAUGU for the first, 0.0102 KA relative to UGCAUGU for the second.

First: B9
Second: B10
The binding signal of the first is higher: 0.0216 KA relative to UGCAUGU for the first, 0.000478 KA relative to UGCAUGU for the second.

First: B11
Second: B12
The binding signal of the first is lower: 0.000179 KA relative to UGCAUGU for the first, 0.00281 KA relative to UGCAUGU for the second.

Compared with B13, B14 is higher in binding signal: 0.0109 KA relative to UGCAUGU for the first, 0.0122 KA relative to UGCAUGU for the second.

First: B15
Second: B16
The binding signal of the first is higher: 0.00856 KA relative to UGCAUGU for the first, 0.00633 KA relative to UGCAUGU for the second.

Compared with B17, B18 is higher in binding signal: 0.00418 KA relative to UGCAUGU for the first, 0.0168 KA relative to UGCAUGU for the second.

Compared with B19, B20 is lower in binding signal: 0.011 KA relative to UGCAUGU for the first, 0.00958 KA relative to UGCAUGU for the second.

Compared with B21, B22 is lower in binding signal: 0.0111 KA relative to UGCAUGU for the first, 0.0104 KA relative to UGCAUGU for the second.

First: B23
Second: B24
The binding signal of the first is lower: 0.00968 KA relative to UGCAUGU for the first, 0.0118 KA relative to UGCAUGU for the second.

First: B25
Second: B26
The binding signal of the first is higher: 0.0243 KA relative to UGCAUGU for the first, 0.0166 KA relative to UGCAUGU for the second.

Compared with B27, B28 is higher in binding signal: 0.000496 KA relative to UGCAUGU for the first, 0.0247 KA relative to UGCAUGU for the second.

First: B29
Second: B30
The binding signal of the first is higher: 0.062 KA relative to UGCAUGU for the first, 0.00257 KA relative to UGCAUGU for the second.

B31 was tested, and the binding signal was 0.0102 KA relative to UGCAUGU.
